According to PubChem BioAssay AID1645882 (National Center for Advancing Translational Sciences (NCATS), 2021):
Where a name gives a salt, the structure may show the parent alone. The campaign covered roughly 16,000 compounds. About 120 (0.75%) were called active. Inconclusive results (about 4%) are left out. Calls come from the whole dose curve; as a rule, active = well fitted inhibition curve with a large enough effect; inconclusive = small, poorly fitted or top-dose-only effect; inactive = no such curve, though single readings can be large or run the other way. Some of the results follow. Where a SMILES comes first, the peptide text is derived from it. The star is where a group is joined. Tfa = O=C(C(F)(F)F)*

target: Rap guanine nucleotide exchange factor 3 (Homo sapiens) (UniProt O95398); assay: Validation qHTS for antagonist of cAMP-regulated guanine nucleotide exchange factor 3 (EPAC1); details: EPAC1 Rap1B-BODIPY-GDP exchange, fluorescence; series mostly up to 150 µM; activity change, negative = inhibition: at the top concentration;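 note: plate controls were DMSO for no effect and ATA control for full effect; nearly all actives have a fitted effect of over 75% in size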
In short: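 Nucleotide exchange followed as fluorescence loss when BODIPY-GDP leaves Rap1B (480 nm excitation, 540 nm emission), read at 5 min intervals over 30 min. Reaction: 100 nM EPAC1, 250 nM RAP1B-BODIPY-GDP, 50 uM GDP; ATA and DMSO define normalization.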

Sequence of UniProt O95398 (O95398 whole entry, looked up): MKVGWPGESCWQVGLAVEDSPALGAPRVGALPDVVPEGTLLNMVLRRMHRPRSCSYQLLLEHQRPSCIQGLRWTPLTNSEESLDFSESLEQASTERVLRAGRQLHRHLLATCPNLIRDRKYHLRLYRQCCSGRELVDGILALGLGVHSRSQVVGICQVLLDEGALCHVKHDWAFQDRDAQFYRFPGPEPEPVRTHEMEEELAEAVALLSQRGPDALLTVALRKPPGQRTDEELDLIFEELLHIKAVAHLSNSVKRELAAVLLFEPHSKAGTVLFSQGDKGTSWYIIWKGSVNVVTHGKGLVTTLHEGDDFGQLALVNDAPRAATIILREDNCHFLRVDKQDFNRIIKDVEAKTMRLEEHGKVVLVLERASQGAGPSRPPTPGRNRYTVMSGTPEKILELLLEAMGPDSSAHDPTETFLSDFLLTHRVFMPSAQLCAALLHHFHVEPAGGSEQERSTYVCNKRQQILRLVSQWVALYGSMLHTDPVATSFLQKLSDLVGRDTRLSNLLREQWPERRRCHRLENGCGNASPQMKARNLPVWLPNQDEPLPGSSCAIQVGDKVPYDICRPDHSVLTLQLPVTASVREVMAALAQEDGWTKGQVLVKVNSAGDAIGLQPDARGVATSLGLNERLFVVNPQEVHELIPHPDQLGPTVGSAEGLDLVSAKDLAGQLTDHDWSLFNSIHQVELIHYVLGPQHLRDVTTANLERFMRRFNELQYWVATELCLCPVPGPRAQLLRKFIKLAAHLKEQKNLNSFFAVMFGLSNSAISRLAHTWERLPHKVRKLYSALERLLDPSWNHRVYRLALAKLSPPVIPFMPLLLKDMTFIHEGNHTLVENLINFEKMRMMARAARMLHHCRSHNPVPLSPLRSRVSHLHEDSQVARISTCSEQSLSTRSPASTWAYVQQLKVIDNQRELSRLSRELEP

Activity change, negative = inhibition, inactive:
Cc1ccc(SC[C@H](C)CN2CC[C@H](O)CCC2=O)cc1 -2.08%
Cc1nnsc1C(=O)NCC1Cc2cccc(-c3ncccn3)c2O1 (stereo not drawn) 17%
C[N+](C)(C)CCOP(=O)([O-])OP(=O)(O)OCC1OC(n2ccc(N)nc2=O)C(O)C1O (stereo not drawn) 10.1%
COCCn1c(=O)c(CCc2ccccc2)nc2cnc(Nc3ccccc3)nc21 14.6%
CC(C)C(NC(=O)C(Cc1ccc(O)cc1)NC(=O)C(NC(=O)C(F)(F)F)C(C)C)C(=O)O (stereo not drawn) (Tfa-Val-Tyr-Val-OH; configuration not given here) 14.7%
Cc1cnc(-n2ncc(C(=O)NCCc3ccccn3)c2C)nc1-c1ccc(F)cc1 13.9%
CC(C)c1nc(CN(C)C(=O)N[C@H](C(=O)N[C@@H](Cc2ccccc2)C[C@H](O)[C@H](Cc2ccccc2)NC(=O)OCc2cncs2)C(C)C)cs1 0.389%
CCCOC(=O)c1c(-c2ccccc2)nc(CC)c(C(=O)SCC)c1CCC -3.56% [at 75.8 µM]
COc1ccccc1OCCNCC(O)COc1cccc2[nH]c3ccccc3c12 (stereo not drawn)
COc1ccccc1CNc1ncnc2ccc(-c3ccc4c(c3)OCO4)cc12 1.51%
Cc1cnc(SCc2ccccn2)nc1C1CCCN(C(=O)c2ccc(-c3ccccc3F)cc2)C1 (stereo not drawn) 1.45%
COc1cc(-c2coc3cc(OCc4ccccc4)c(OC)c(O)c3c2=O)cc(O)c1OC -22.3%
CCn1c(-c2ccccc2F)nc2cc(NC(C)=O)cc(C(=O)NCC3CCOCC3)c21 8.87%
COC(=O)N1CCC2(CCCN(c3ccccn3)C2)CC1 34%
CC1OC1P(=O)(O)O (stereo not drawn) -1.48% [at 75.8 µM]
COC(=O)/C(=C1/OC(=O)C(c2ccccc2)=C1O)c1ccccc1 6.34%
Cc1cnc(-n2ncc(C(=O)NCCN3CCOCC3)c2C(C)C)nc1-c1ccc(F)cc1 -1.73%
CC(=O)Oc1cccc(C(=O)O)c1OC(C)=O 9.07%
CCN(CC)C(=O)c1cc(S(=O)(=O)Cc2ccccc2)c(N2CCC(c3ccccc3)CC2)cc1N(CC)CCN(C)C -9.9%
COc1c(O)cc2c(c1O)[C@@H]1O[C@H](CO)[C@@H](O)[C@H](O)[C@H]1OC2=O 2.48% [at 75.8 µM]
CCC1OC(=O)C(C)[C@@H](O[C@H]2C[C@@](C)(OC)C(O)C(C)O2)C(C)[C@@H](O[C@@H]2OC(C)CC(N(C)C)C2O)[C@@](C)(O)CC(C)CN(C)C(C)C(O)[C@]1(C)O (stereo partly drawn) 8.51%
CCCCC(F)(F)[C@@]1(O)CC[C@H]2[C@H](CC(=O)[C@@H]2CCCCCCC(=O)O)O1 29.9%
COc1ccc(CCCOC(Cn2ccnc2)c2ccc(OC)cc2)cc1 (stereo not drawn)
C=CCN(C(=O)OC(C)(C)C)S(=O)(=O)NCc1ccccc1 6.4%
C[N+]1(CC(=O)c2ccc(-c3ccccc3)cc2)CCOCC1 21.9%
COc1ccc(C(C)=O)c(O)c1 -1.33%
Cc1cccc(CNCCn2cc(C(=O)Nc3ccccc3)nn2)c1 -6.58%
CCc1ccc(C(=O)C[N+]2(C)CCOCC2)cc1 7.1%
Cc1cccc(Nc2ncccc2C(=O)O)c1C 14.4%
O=C1CCN(CCc2ccccc2)CCN1[C@H](CO)c1ccccc1 -13%
Oc1ccc(C(O)CNCCCCCCNCC(O)c2ccc(O)c(O)c2)cc1O (stereo not drawn) 3.21%
CCc1c(C(=O)NCCc2ccc(N3CCCCC3)cc2)[nH]c2ccc(Cl)cc12 -8.84% [at 75.8 µM]
Cc1cc(C(=O)Nc2ccccc2-c2nc(CNC(=O)c3ccccc3Cl)c(C)o2)c(C)o1 11.4%
CCCCN(CCCC)C(=S)[S-].CCCCN(CCCC)C(=S)[S-].[Zn+2] -4.97%
CCN(Cc1ccncc1)Cc1ccc2c(c1)CN(C(=O)c1ccccc1)CCO2 9.54%
Cc1cccc(CNC(=O)c2cnn(-c3nccc(-c4cccs4)n3)c2C(C)C)n1 19.1%
C#CCOc1ccc2c(C)cc(=O)oc2c1 22.1%
CN(C)c1ncc2nc(-c3cccs3)c(=O)n(C3CC3)c2n1 52.3%
COc1ccc2[nH]c(S(=O)Cc3ncc(C)c(OC)c3C)nc2n1 (stereo not drawn) 8.43%
CS(=O)(=O)Nc1cccc(-c2cncnc2NCc2ccccc2)c1 5.93%
CCC1=C[C@@H]2CN(C1)Cc1c([nH]c3ccccc13)[C@@](C(=O)OC)(c1cc3c(cc1OC)N(C)[C@@H]1[C@@](O)(C(=O)OC)[C@H](OC(C)=O)[C@]4(CC)C=CCN5CC[C@]31[C@@H]54)C2 4.66%
Cc1cc(O)cc(=O)o1 -3.13%
Cn1c(=O)c(CCc2ccccc2)nc2cnc(Oc3ccccc3)nc21 -6.5%
NC(N)=NCCN1CCCCCCC1
COCC(=O)N1CCC[C@@]2(CCN(Cc3nccs3)C2)C1 9.13%
Cc1cnc(-n2ncc(C(=O)N(C)C3CCOC3)c2-c2cccs2)nc1-c1ccc(F)cc1 (stereo not drawn) 7.41%
O=c1c(-c2ccc(Cl)cc2)nc2cnc(N3CCOCC3)nc2n1Cc1ccc(F)cc1 19.1%
CCN1CCCC1CNC(=O)c1cc(S(=O)(=O)CC)c(N)cc1OC (stereo not drawn)
Nc1nc(N)nc(-c2cc(Cl)ccc2Cl)n1 16.1%
CCOC(=O)[C@H](CCc1ccccc1)N[C@@H](C)C(=O)N1CC2(C[C@H]1C(=O)O)SCCS2 13.8%
S=P(N1CC1)(N1CC1)N1CC1
COC(=O)C1CCN(Cc2ccc3c(c2)CN(C(=O)c2ccc4nc(C)c(C)nc4c2)CCO3)CC1 7.92%
COCCN(C)C(=O)c1cnn(-c2nccc(-c3cc(C)sc3C)n2)c1C 6.02%
O=c1c(-c2cccc(F)c2)nc2cncnc2n1Cc1ccccc1 -2.44%
COc1cc(N)c(Cl)cc1C(=O)NC1CCN(Cc2ccccc2)CC1
COc1ccc(SC[C@H](Cc2ccccc2)N2CC[C@@H](O)CCC2=O)cc1 1.24%
COC(=O)N1CCC2(CCCN(C(=O)Nc3ccc(OC)cc3)C2)CC1 21.6%
COc1cccc(CNC(=O)c2c(OC)cc(=O)n3c2CCN(C(=O)C2=C(C)OCCO2)CC3)c1 12.6%
Cc1ccc(F)cc1CNC(=O)c1sc2ncnc(NCC3CCCO3)c2c1C (stereo not drawn) 8.5%
COc1ccc(Oc2ncc3nc(-c4ccc(F)cc4)c(=O)n(CCC#N)c3n2)cc1 -0.261%
C=CCSCC(N)C(=O)O (stereo not drawn) 20.8%
COc1cc(NCCCC(C)N)c2ncccc2c1 (stereo not drawn) 7.2%
C[C@@H]1c2ccccc2CN1CC1=NCCN1 7.18%
